# Test results: PubChem BioAssay AID588342 (National Center for Advancing Translational Sciences (NCATS), 2011)
# Where “and” joins values, the source holds several entries; their conditions need not be identical. Identical values can stand only once. Among all 360,000 compounds or so, about 25,000 (6.9%) were called active. Inconclusive means that the source gave no clear call. Such entries were picked first, then a sample of the others. The call rests on the fitted dose curve; in most records, active means well fitted inhibition curve with a large enough effect; inconclusive means small, poorly fitted or top-dose-only effect; inactive means flat fitted curve, though single readings scatter. A potency beside an inconclusive call is a rough fit, not a confirmed value.
# Molecular target: Luciferin 4-monooxygenase (Photinus pyralis) (UniProt P08659)
# Assay: qHTS profiling assay for firefly luciferase inhibitor/activator using purifed enzyme and Km concentrations of substrates (counterscreen for miR-21 project); further: nearly all actives have a fitted effect of over 55% in size
# Details: purified FLuc, luminescence inhibition; series mostly up to 57.5 µM
# Method in brief: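 Purified P. pyralis luciferase (10nM final) with 10uM D-luciferin and 10uM ATP (Km levels) in 50mM Tris acetate pH 7.5, 10mM Mg acetate, 0.01% Tween-20, 0.05% BSA; qHTS 6-point titration, ~60 µM downward; luminescence read.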
# Potency means the concentration at half of the fitted maximal effect; tags describe the fitted curve by direction and shape.
# UniProt P08659, sequence (P08659 whole entry, looked up): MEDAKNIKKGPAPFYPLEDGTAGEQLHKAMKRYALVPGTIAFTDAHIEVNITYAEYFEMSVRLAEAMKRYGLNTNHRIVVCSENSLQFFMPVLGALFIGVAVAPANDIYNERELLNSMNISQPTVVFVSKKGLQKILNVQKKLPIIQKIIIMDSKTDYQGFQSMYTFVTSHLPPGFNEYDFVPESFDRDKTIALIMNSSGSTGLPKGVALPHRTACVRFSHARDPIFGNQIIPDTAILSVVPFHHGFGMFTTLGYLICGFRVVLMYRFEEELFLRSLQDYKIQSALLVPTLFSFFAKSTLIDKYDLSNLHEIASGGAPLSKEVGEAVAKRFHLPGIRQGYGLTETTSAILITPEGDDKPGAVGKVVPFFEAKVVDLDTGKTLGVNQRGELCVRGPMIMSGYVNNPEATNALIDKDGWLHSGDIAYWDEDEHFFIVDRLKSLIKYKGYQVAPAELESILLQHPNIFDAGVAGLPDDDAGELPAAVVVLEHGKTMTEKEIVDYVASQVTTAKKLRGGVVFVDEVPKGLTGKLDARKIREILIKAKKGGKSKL
row,SMILES,Potency
1,CC(=O)c1ccc(N2CCC(C)CC2)c(F)c1,"inconclusive: 26.9 µM [inhibitor, partial curve, poor fit]"
2,CCCCN(C(=O)COC(=O)CSc1ccc([N+](=O)[O-])cc1)c1c(N)n(CCC)c(=O)[nH]c1=O,inactive
3,Cc1ccc2c(C)c(C(=O)NCCc3ccco3)oc2c1C,"inconclusive: 21.3 µM [inhibitor, single point]"
4,c1ccc2cc(OCCCn3ccnc3)ccc2c1,"inconclusive: 37.9 µM [inhibitor, partial curve, poor fit]"
5,CC(=O)Nc1ccc(C(=O)OCCc2ccccc2)cc1,active: 12 µM
6,N=c1oc2ccccc2cc1C(=O)Nc1ccccc1,active: 0.757 µM
7,CSc1ccccc1C(=O)C1CCCN(C(=O)c2csnn2)C1 (centres undefined),"inconclusive: 23.9 µM [inhibitor, partial curve, poor fit]"
8,Cc1ccc(CN2CC(C(=O)N3CCN(c4ccccc4Cl)CC3)CC2=O)cc1 (centres undefined),inactive
9,NC(=S)N/N=C1\CC(c2ccc3c(c2)OCCO3)Oc2ccc(F)cc21 (centres undefined),"inconclusive: 30.1 µM [inhibitor, partial curve, poor fit]"
10,O=C(c1cnn2c(C(F)(F)F)cc(-c3cccs3)nc12)N1CCN(Cc2ccccc2)CC1,inactive
11,COCCn1c(SCC(=O)NC(C)c2ccc(F)cc2)nc2ccccc21 (centres undefined),inactive
12,Cc1ccc(NC(=O)c2snc3c(=O)[nH]cnc23)cc1C,inactive
13,CC(C)(C)c1ccc(C(=O)NCC(=O)O)cc1,"inconclusive: 23.9 µM [inhibitor, partial curve, poor fit]"
14,O=C(c1ccc([N+](=O)[O-])cc1)N1c2ncnn2C2(CCCCC2)[C@@H]2CCCC[C@@H]21,inactive
15,O=C(NCC1CCCO1)c1cc2ccccc2o1 (centres undefined),"inconclusive: 37.9 µM [inhibitor, single point]"
16,Cn1c(SCC(=O)NC2CCCc3ccccc32)nnc1C1CC1 (centres undefined),inactive
17,Cc1ccc(C2=CC(=O)CC(C)(C)C2)cc1,"inconclusive: 33.8 µM [inhibitor, partial curve, poor fit]"
18,N#Cc1ccccc1NC(=O)CSC1=Nc2ccccc2C2CC=NN12 (centres undefined),"inconclusive: 15.1 µM [inhibitor, partial curve, poor fit]"
19,O=c1c(-c2nc3ccccc3o2)c2oc3ccccc3n2c2ccccc12,"inconclusive: 33.8 µM [inhibitor, single point]"
20,CCc1nc(SCC(=O)c2ccc3c(c2)OCCO3)c2ccccc2n1,"inconclusive: 16.9 µM [inhibitor, partial curve]"
21,COc1ccc(/C=C/C(=O)Nc2cccc(S(=O)(=O)N3CCCC3)c2)cc1OC,"inconclusive: 23.9 µM [inhibitor, partial curve]"
22,S=C(Nc1ccccc1)Nc1nc2ccccc2n1CCOc1ccccc1,"inconclusive: 10.7 µM [inhibitor, partial curve, poor fit]"
23,Cc1ccc(-n2ncc3c(=O)n(CC(=O)OCc4ccccc4)cnc32)cc1,"inconclusive: 23.9 µM [inhibitor, partial curve, poor fit]"
24,CCC(C)c1ccc(Nc2ncccc2C#N)cc1 (centres undefined),active: 21.3 µM
25,CC(C)(C)c1csc(NNC(=O)c2ccc(Cl)cc2)n1,"inconclusive: 13.5 µM [inhibitor, partial curve, poor fit]"

row,SMILES,Potency
1,Cc1ccc(N2C(=O)c3ccccc3NC2c2ccccc2O)cc1 (centres undefined),"inconclusive: 23.9 µM [inhibitor, single point]"
2,CCN(CC)C(=O)Cn1c(SCC(=O)Nc2ccc(F)cc2)nc2ccccc21,inactive
3,CCOc1ccc2nc(NC(=O)c3ccco3)sc2c1,active: 0.675 µM
4,COc1ccc(/C=C2\SC(=O)NC2=S)cc1OC,"inconclusive: 21.3 µM [inhibitor, single point]"
5,N/C(=N\OC(=O)c1cccnc1)c1ccc(Cl)cc1Cl,"inconclusive: 23.9 µM [inhibitor, partial curve]"
6,Cc1ccc(-c2nnc(SCc3ccccc3)o2)cc1,active: 4.78 µM
7,COc1ccccc1C(=O)NCC(=O)OC(C)C(=O)NC(=O)NC1CCCCC1 (centres undefined),inactive
8,O=C(Nc1ccccc1)C(=O)c1c[nH]c2ccccc12,active: 1.69 µM
9,COc1ccc(NC(=O)c2ccccc2NC(=O)c2cccs2)cc1,active: 15.1 µM
10,CC(=O)c1cccc(NC(=O)Nc2cnn(Cc3ccc(F)cc3)c2)c1,"inconclusive: 30.1 µM [inhibitor, single point]"
11,C/C(=N\NC(=S)Nc1ccc(F)cc1)c1ccc2c(c1)OCCO2,"inconclusive: 33.8 µM [inhibitor, single point]"
12,COc1ccc(N2CSC3=C(C#N)C(c4ccc(OC)c(OC)c4)CC(=O)N3C2)c(OC)c1 (centres undefined),"inconclusive: 23.9 µM [inhibitor, partial curve]"
13,C(=N\N1CCN(Cc2ccccc2)CC1)/c1cccs1,"inconclusive: 16.9 µM [inhibitor, partial curve]"
14,Cc1ccc(C)n1-c1cc([N+](=O)[O-])ccc1-n1ccnc1,inactive
15,N/C(=N\OC(=O)COc1ccc(Br)cc1Cl)c1ccncc1,active: 6.75 µM
16,Cc1nc(C)c(-c2ccccc2)c(=O)[nH]1,inactive
17,CCC(C(=O)NCCc1ccc(OC)c(OC)c1OC)n1nc(C)c2sc3ccccc3c2c1=O (centres undefined),"inconclusive: 16.9 µM [inhibitor, partial curve, poor fit]"
18,O=C(NN1C(=O)c2cc(Br)ccc2NC1c1cc(Br)cc(Br)c1O)c1ccncc1 (centres undefined),"inconclusive: 15.1 µM [inhibitor, partial curve]"
19,COc1ccc(C(=O)/C=C/Nc2ccc([N+](=O)[O-])cc2C)c(OC)c1,"inconclusive: 0.338 µM [inhibitor, partial curve, poor fit]"
20,O=C(O)c1ccc(NC(=O)c2ccc3c(c2)C(=O)N(CC2CCCO2)C3=O)cc1 (centres undefined),"inconclusive: 37.9 µM [inhibitor, partial curve, poor fit]"
21,Cc1ccc2nc3ccc(N4CCCC4)nn3c(=O)c2c1,active: 10.7 µM
22,CC(C)c1ccc(/C=C/C(=O)N2CCCCCC2)cc1,active: 15.1 µM
23,CCOC(=O)c1cnc2ccc(OCC)cc2c1NCc1cccnc1,"inconclusive: 23.9 µM [inhibitor, single point]"
24,CC(C)N1CCc2c(sc(NC(=O)CCS(=O)(=O)c3ccccc3)c2C#N)C1,inactive
25,Nc1ncc(Br)cc1S(=O)(=O)Nc1cc(C(F)(F)F)cc(C(F)(F)F)c1,inactive

row,SMILES,Potency
1,CCC1=NN2C(=N)/C(=C\c3cccn3-c3ccc(Cl)cc3)C(=O)N=C2S1,"inconclusive: 10.7 µM [inhibitor, partial curve]"
2,CCc1ccc(C(=O)NNC(=O)c2cccc(N3C(=O)CCC3=O)c2)cc1,active: 10.7 µM
3,COC(=O)Cc1ccc(NC(=S)Nc2ccccn2)cc1,active: 21.3 µM
4,O=C(Cn1cc2c(n1)CCCCC2)NCc1ccccn1,"inconclusive: 30.1 µM [inhibitor, partial curve, poor fit]"
5,CN1C=CC(=C2C(=O)c3ccccc3C2=O)C=C1,active: 3.01 µM
6,COc1ccc(-n2nnc3c(=O)n(CC(=O)Nc4ccc5c(c4)OCCO5)cnc32)cc1OC,inactive
7,O=C(O)c1cc(-c2ccccc2)nn1Cc1ccccc1,"inconclusive: 16.9 µM [inhibitor, partial curve, poor fit]"
8,Cc1ccc(-c2nnc3ccccc3c2C(=O)Nc2ccc(F)cc2)cc1,"inconclusive: 19 µM [inhibitor, partial curve, poor fit]"
9,COc1ccc(-c2c3c([nH]c(=S)c2C#N)CCC3)cc1,"inconclusive: 37.9 µM [inhibitor, partial curve, poor fit]"
10,Cc1ccc(N2CCN(c3nc4ccc(C(=O)c5ccccc5)cc4n4cnnc34)CC2)c(C)c1,inactive
11,CCOC(=O)C1=C(COC(=O)c2ncc(Cl)c(Cl)c2Cl)NC(=O)NC1C (centres undefined),inactive
12,O=C(O)/C(=C\C(=O)c1ccccc1)Nc1ccccc1,"inconclusive: 26.9 µM [inhibitor, single point]"
13,Cn1cc(SCC(=O)Nc2nccs2)c2ccccc21,active: 12 µM
14,Cc1cc(C(=O)OCC(=O)NCc2ccco2)c(C)n1-c1ccc(F)cc1,inactive
15,CCOC(=O)c1c(C)[nH]c(C(=O)CSc2ccccc2)c1C,active: 0.536 µM
16,CC(=O)NC(CC(=O)Nc1ccc2c(c1)OCCO2)c1ccccc1 (centres undefined),"inconclusive: 21.3 µM [inhibitor, single point]"
17,CCOC(=O)N1CCC(NC(=O)c2oc3c(F)cccc3c2C)CC1,"inconclusive: 26.9 µM [inhibitor, partial curve]"
18,CNc1ncc(C(=O)c2ccc(F)cc2)s1,"inconclusive: 26.9 µM [inhibitor, single point]"
19,Cc1noc(C)c1CNCc1ccccc1,inactive
20,CCc1ccc(/C=C2\SC(=S)N(CCCC(=O)Nc3ccccn3)C2=O)cc1,active: 15.1 µM
21,Cc1ccc(S(=O)(=O)NN2C(=O)/C(=C/c3cccs3)SC2=S)cc1,"inconclusive: 37.9 µM [inhibitor, partial curve, poor fit]"
22,COc1cccc(N2CCN(C(=O)c3ccc4nc(N5CCC(C)CC5)sc4c3)CC2)c1,active: 6.01 µM and active: 9.53 µM
23,CC(=O)Nc1cccc(-c2nnc(SCC(=O)c3cc([N+](=O)[O-])ccc3Cl)o2)c1,"inconclusive: 26.9 µM [inhibitor, partial curve, poor fit]"
24,CC(C)(CNc1ccc(S(=O)(=O)C(F)(F)F)cc1[N+](=O)[O-])N1CCOCC1,"inconclusive: 21.3 µM [inhibitor, partial curve, poor fit]"
